Laboratory results from a collection of fitness landscapes (doi:10.1016/j.celrep.2020.107928).
The full ranking holds about 81,000 sequences; the median of “one-hybrid fitness for binding NBS DNA” is about -0.1, and the highest 2% start at about 0.36. The list shows a part of the results.

B1: Caulobacter ParB omega fusion; a variant is named by its letters at X, in order, B8GW30 (parent)
chain: MESVVVGEPGMSEGRRGLGRGLSALLGEVDAAPAQAPGEQLGGSREAPIEILQRNPDQPRRTFREEDLEDLSNSIREKGVLQPILVRPSPDTAGEYQIVAGERAWRAAQRAGLKTVPIMVRELDDLAVLEIGIIENVQRADLNVLEEALSYKVLMEKFERTQENIAQTIGKSXSHVANXMRLLXLPDEVQSYLVSGELTAXHARAIAAAADPVALAKQIIEGGLSVRETEALARKAPNLSAGKSKGGRPPRVKDTDTQALESDLSSVLGLDVSIDHRGSTGTLTITYATLEQLDDLCNRLTRGI

Variants of: B1
Experiment: one-hybrid fitness for binding NBS DNA (the Noc-binding site; scaled: cognate 1, non-cognate 0); higher = stronger binding
Details: with NBS DNA site
Outline: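 Fitness here means the log change in variant-to-wild-type read ratio between plasmids sequenced before and after selection. That scale was set so cognate equals 1 and non-cognate equals 0. The selection was a bacterial one-hybrid screen of Caulobacter ParB libraries, four specificity codons randomised, in E. coli USO carrying a HIS3 reporter with the site 19 bp from the promoter, grown 48 hours at 37°C on M9-minus-histidine with 0.1 mM IPTG and 5 mM 3-AT.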

one-hybrid fitness for binding NBS DNA, 0.428:
QQDT

one-hybrid fitness for binding NBS DNA, ≤ 0.2:
LVEY
MYQK
IWTE
YFKS
QSEQ
YRSK
RAFY
LEER
FKPC
NFSR
FTTC
HCMH
MDIS
RMEL
VRPL
PDMR
RPSL
DGCI
IPSG
MIQE
QANF
ENWL
PQSR
WKKW
SGKR
ECKS
WRNG
QHAM
APQP
MCVC
ADVG
PQES
DCEC
LPFT
DVTC
KGSH
ADRV
INGN
MQAV
AFPS
RGEY
KYIR
AAKP
SRRY
FLVC
EGWG
EPLT
LPHN
HWHC
RYFI
VTWY
APRD
FYGS
PNAR
LSKL
KRWM
QPPY
LYWG
FTQE
PPGA
NYTT
LLSM
QRPW
HRYS
SAGK
PIEV
RGQL
NYPM
RWPW
STHN
WTND
RHHD
QDAC
DPHS
PMLT
KMGK
CQHC
LGGT
RQDV
SYTF
CLTS
AMRV
AIYA
DRYT
PHGA
TETA
PLNP
CTCG
EMFL
LKNR
RSDV
WKRT
AARM
GLRI
DPAI
YLVF
MVLS
VDFE
ELCR
QHAV
VEPR
SYSE
EMEG
YINR
GAHY
DVIF
HVLN
YKQC
APLN
NLRN
INLS
RLEI
DTEL
LGQM
MTCG
YAFG
ACWS
IPVS
QHIG
CQFL
RSPY
RGRP
DGLW
RNLV
AAAP
SFMC
VCKG
FVAR
PSVQ
RCAC
AHAE
RNHI
VMCT
CDED
FQPY
ITSF
NIVC
HWNS
FNRT
LWPE
KCEY
TNSG
TFLW
CPHR
GPMC
DQQR
TTWL
NGWS
NEAS
STAT
QVTW
IMEG
CVFC
SCPR
LLMM
FGWS
YPFR
KMSY
LSFP
VPDG
LGDS
ARQY
NLTY
LPVA
HALG
LHPQ
ENKG
STMD
IGKY
FQVR
YIHK
PRTW
IFTF
WPMG
SKGG
VPNP
RMIE
KCNS
AAAF
RREP
GRYS
VMQK
FFSS
HPDL
DHQG
RNSV
PYTG
HFNS
GVDV
CHWG
TDTL
RTAE
DCSG
RCEE
QGMG
WGRS
VMPL
SSCC
KDNS
RSYW
WTSW
NTPT
TTVE
SHSP
ICLG
ESNC
SYEE
DCVR
AKEL
AQWG
LEVD
DYTY
RMQF
SDER
ILSM
LAKM
TPKS
PCRK
TACD
HWNF
QACE
LVMT
SCFG
FGQG
FSKV
VAEV
DECT
RAEF
HGRC
KRRF
WCSR
AYGD
TESN
TRNC
DGRA
MMFL
LKLW
SAHF
VVMG
PMTP
CKTY
WRWR
IHDT
PFTE
THAF
RAIG
CPPE
WLLT
STLL
LIRK
MGKF
SWRH
PFQV
PPAV
PLDV
GAFR
PCYW
RGVA
RTIH
TWHS
LPRI
HFAF
YKLA
LCCM
EHSR
HGQG
HRRF
VNMC
AMVR
LSVM
KMPV
PTWR
NASW
DRHT
LYNI
HHGV
VIDW
QVDP
RQQY
YCFG
RCVP
ENGW
MYPC
NFSL
CAAF
LFKK
FAHS
FVSS
YTYW
PEFG
TTWR
PMNC
YELR
IQYR

one-hybrid fitness for binding NBS DNA, 0.311:
RRSM

one-hybrid fitness for binding NBS DNA, 0.447:
SFQV

one-hybrid fitness for binding NBS DNA, 0.53:
RTCR

one-hybrid fitness for binding NBS DNA, 0.263:
QRTP

one-hybrid fitness for binding NBS DNA, 0.301:
TRYR

one-hybrid fitness for binding NBS DNA, 0.216:
KKQS

one-hybrid fitness for binding NBS DNA, 0.469:
RYTR

one-hybrid fitness for binding NBS DNA, 0.266:
QLER

one-hybrid fitness for binding NBS DNA, 0.668:
QMKS

one-hybrid fitness for binding NBS DNA, 0.379:
RRKP

one-hybrid fitness for binding NBS DNA, 0.312:
QVMR
